Test results published in the supplement of paper PMC11417369.
Some of the results follow.

These sequences were tested on PfSIP2 AP2 domain 1 (GST-tagged) (assay: gcPBM binding intensity (ln(normalized median fluorescence intensity)); higher = stronger DNA binding).
Outline: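 Probes on an Agilent 4 × 180k array were primer-extended, double-stranded and 36 bp long, taken from intergenic genomic regions, with negative controls added. GST-tagged P. falciparum DNA-binding domains from E. coli, about 25 μg on average, were applied to the array for 1 h in 1× PBS containing 1% milk, 0.2 mg/ml BSA, 0.5% salmon testes DNA and 0.03% Triton X-100. Binding intensity, obtained after Alexa488 anti-GST antibody detection and a 488 nm scan, is the highest Masliner-normalised natural-log median intensity across replicate spots of either probe orientation.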

Row | Sequence | gcPBM binding intensity (ln)
1 | ATTTATATCCTTAAACGTACATTGTATTGTATTTTA [XGTACX_site6080] | 6.82
2 | AATAATCATGATCAAAGTACTTATGAATACCAAAAA [XGTACX_site2572] | 7.13
3 | GCATCCCTTTTTATGTGTACATACAAAGGCAATTAC [XGTACX_site6977] | 7.4
4 | AAAATATAAATCTAAGCATGCAAAAAAAATTTATAA [TGCATGCA_site1008] | 6.72
5 | TATTGTTTTAAAGAGACATGCAATATATATTATTCC [TGCATGCA_site752] | 6.82
6 | TTTTTATTCGATGATCAAATAGGTATATACAAAAAA [CACACA_negctrl_site1813] | 7.22
7 | AATAATAATAGTAATATGTACATATATATATATATA [TGCATGCA_negctrl_site542] | 9.3
8 | TATAAGCAAAAACACACACACATATATATATATATA [CACACA_site3804] | 9.78
9 | TTATTTAAAAAAAAGTGTACCCATATATTATAAATC [XGTACX_site8374] | 6.97
10 | TAATATTATAGATAAACACACATACACATGTAAATA [CACACA_site7049] | 7
11 | AAATGAAATTTGTATACACACAAATATATATATATA [CACACA_site836] | 9.55
12 | TTGTATATATATGGAAAAATATATATATATATATAT [GTGCAC_negctrl_site591] | 9.75
13 | TTTATTTATAGACACACACACAAAAAAAAAAAAAAA [CACACA_site7280] | 7
14 | TTTTTTTTTTTTTTTATAAAAGATAATTTTTTTTTA [CACACA_negctrl_site133] | 6.86
15 | CATTTATATTATAAATGTACAAAGTTCGTTTGTTCC [XGTACX_site1305] | 6.91
16 | TGTCTTTAAATTTCTCAACACACAGTTATAAAAAAT [CACACA_site8930] | 7.33
17 | GGGTCAAGTAAGCTGTTCCTCTTTTTCTTTCTCACT [GTGCAC_negctrl_site473] | 7.16
18 | TATAAATTTAAAATGACACACACTAATATTATTTAA [CACACA_site8334] | 6.84
19 | ATACGATTGAAACATTGTACATGAATATAAAAAAAT [XGTACX_site5704] | 7.04
20 | TAAACGTTAGTATGTGTGCACATTAGTAATTTAAAA | 8.8
21 | TTTTTATTATTCTTAAGGATATAACAAAAAAGAAAA [XGTACX_negctrl_site584] | 6.94
22 | ATTAATATTATTAGAAGTACTAATAGTAGTATAACT [XGTACX_site1325] | 6.89

Row | Sequence | gcPBM binding intensity (ln)
23 | TTCTAAAAAAATAAAATTATCAAGGTTTTTAAACGT [CACACA_negctrl_site308] | 6.91
24 | TCAAAGCACACATACACACACATATAGATTTATATA [CACACA_site6272] | 7.19
25 | TCTTCATAAAAATAAAGTACATTATATATATAAATA [XGTACX_site3775] | 7.15
26 | TAAATAAATATATATTCACACACAAACATATATATA [CACACA_site9332] | 7.23
27 | ATGTTGTGTATATATACACACATACATATATATATA [CACACA_site8461] | 9.16
28 | GAAATATTTAGACACACACACAAACATATAAATATA [CACACA_site6980] | 7.08
29 | GATTATATTATATATTAAATATAAATATGTATTATA [TGCATGCA_negctrl_site66] | 6.76
30 | AATGGAAATGTAAAATGTACAGGACGCACACACATA [XGTACX_site7788] | 7.25
31 | AATGAGAAGGACTGCACACTAAAATGGAAGGAGAAA [CACACA_site1575] | 7.3
32 | AAAAAAAATTAAAATAAATTAAAAAGTAATTATATA [GTGCAC_negctrl_site615] | 6.53
33 | GAAAAAATTTTATGGTGTACTTTATTTATTTATATA [XGTACX_site6323] | 7.07
34 | TTATTACATGTTACTTAACACACATCTGGTGAAATA [CACACA_site7939] | 6.98
35 | GGAAAGACAGTTCACAGTACCCAGTAAACTCTACGG [XGTACX_site2557] | 6.01
36 | AAAATATAGTAATATATATATGTATATTATTTGTGG [CACACA_negctrl_site1590] | 7.06
37 | ATTAAGTTCAAATGTAGTACGTGTAAAAAAAAAAAA [XGTACX_site1578] | 7.28
38 | TACCATGTTCAAATTACACACATATAATGTAATATA [CACACA_site5150] | 7.11
39 | ATATATAATATTTTTATTTTTATTTTTTTTTTATGA [TGCATGCA_negctrl_site577] | 6.6
40 | TTTATATATGTAAATGCACACATATGTGTATATACT [CACACA_site8493] | 7.18
41 | AAAATAAATAAATAAATAAATATATATATATATATA [XGTACX_negctrl_site345] | 8.97
42 | TATAGGTATATATTATGTACTTATAATTATATAGAT [XGTACX_site1912] | 7.04
43 | TATTCGAAAATTATTCAAATTATCTAACATATTATT [TGCATGCA_negctrl_site70] | 6.6
44 | AAAAATAAAATAATATGTACATATATAATATATATA [XGTACX_site4786] | 7.74

Row | Sequence | gcPBM binding intensity (ln)
45 | TAATTTTTTAGACACACACACATATAAATATAAATA [CACACA_site6195] | 7.22
46 | AATTGGAAACAACCAAAAAAATTAAAGTTGTATCCT [CACACA_negctrl_site565] | 6.6
47 | TTGTATATTATATGTACACACAATAAGTTAATATAA [CACACA_site909] | 7.05
48 | TTCCTTTGTCCTAACTGTACTCAAATTTATTAGTGG [XGTACX_site226] | 7.3
49 | ATAATATATTTTTGAACACACAATATAGATTTATAT [CACACA_site7857] | 7.04
50 | TAAATACAAAAATGTACACACATATATATATTTTTA [CACACA_site3503] | 6.99
51 | TAAATTTTAATATGCACACAAAATGTTATATTAAAA [CACACA_site4366] | 7.32
52 | CGGCACATTATATATACACACATATAAATATATACA [CACACA_site8086] | 7.18
53 | TAAATGAAAACCATTAGTACTTATACTGATAAATGT [XGTACX_site763] | 6.69
54 | TATATCTTAATATACACACACACATATATATATATA [CACACA_site4968] | 9.18
55 | TATATAAATATATATACACACAAAAAAAAAAAAAAA [CACACA_site1406] | 7.09
56 | CATATAAAAAATATGGTGCAGTTTTTTTTTTTTTTT | 10.4
57 | TATATATATAATGTTTGTACATATTAAATATATATG [XGTACX_site407] | 8.3
58 | AAAAAAAGTTGATACTGTACTCGTGCATTATGAATA [XGTACX_site5558] | 7.08
59 | CTTATTAAAATTATTTGTACACAATATGTAAAAGTA [XGTACX_site7237] | 6.99
60 | TAATTAAAATTATCTACACACCTTTATAAATATATA [CACACA_site3928] | 6.83
61 | AGGTATTTTCTTGTGACACACATATATATATATATT [CACACA_site2220] | 7.37
62 | TTTTGCAATAATGTTGCACACTAAATAGTCATATAT [CACACA_site7977] | 7.61
63 | TTTATATTGATATATACACACATATACATCCTATTT [CACACA_site7442] | 6.94
64 | ATTATTGTTGTTCATGTACACACTATAATAAAAGCA [CACACA_site4168] | 7.37
65 | ATTAATTATTTCAATGCATGTGAACACTATATATAA [TGCATGCA_site600] | 7.13
66 | ATATATATATATATATGTACATATTTCTCCATTTTT [XGTACX_site2869] | 9.68

Row | Sequence | gcPBM binding intensity (ln)
67 | CATATTTTTATAAATTGTACGTATATTATATATATA [XGTACX_site1816] | 7.99
68 | GCATTGTCCATGCGCACACACTACTAGAATAATATG [CACACA_site5932] | 7.48
69 | AAACCGTGGGAGCACACACACACACCGACACATATA [CACACA_site4338] | 6.99
70 | TGCAATTGTAAAGGCGCACACATATATATATATATA [CACACA_site4894] | 9.4
71 | GTTTTTTATAATTGTAGTACAAGAAGATATTTTTAT [XGTACX_site5443] | 7.44
72 | CCATCTAAACACAACTCGAGTTGGATGTGTGAACTT [XGTACX_negctrl_site83] | 6.63
73 | ATCAAAAGAAAACACACACACATACAGATATATATA [CACACA_site5974] | 7.24
74 | TCCATTTATAAATTAGCATGCAATCTATGTCTGATA [TGCATGCA_site1045] | 6.81
75 | AATTAATGGGTACATACACACATATATACCTACATA [CACACA_site4572] | 7.05
76 | ATATATCAATATAAAAGTACAAACAAAAAATAATCA [XGTACX_site7559] | 7.06
77 | GATATATACTCCATCACACACCAAAAAGAAAAAAGA [CACACA_site7242] | 7.34
78 | CACAGACACGGACACACACACACACCCATATATATA [CACACA_site4354] | 7.42
79 | ATACAAGAATTAAACACACACAAAATATAAATTCTT [CACACA_site3005] | 6.97
80 | AGCAACCTGAAAAAATTACTCTTTCTTAAACAAATT [XGTACX_negctrl_site266] | 7.02
81 | ACCTGTAAAAATGTTTATATATATATATATATATAT [CACACA_negctrl_site1500] | 9.8
82 | TTAAGGATTAAGGTGTGTACATATAAATATTATATA [XGTACX_site7532] | 7.17
83 | AAAAAAAAAAAAAATTGTACATAATAAAAATATGGA [XGTACX_site3189] | 7
84 | TGTTTATTCTTTAAATATTATTCAAATACTACAAGT [CACACA_negctrl_site746] | 7.04
85 | CGGCACATTATATATACACACATATAAATAAATACA [CACACA_site4477] | 7.2
86 | TATATATATAAGTGCACACTGAACCAAGAAAATTAT [CACACA_site3008] | 10.5
87 | GGATTGATAAGTGGTACACACATATAGATTATAGAT [CACACA_site7367] | 7.27
88 | AATATTAAATGAAAAAGTACAAACAGTCCTATATTA [XGTACX_site1926] | 7
